In the supplement of paper PMC9588766:
Structures can show the parent of a compound that is named as a salt. In all, about 1,900 compounds were measured (“cell viability of compound + 1 nM pemigatinib relative to pemigatinib-only (DMSO) wells”: median about 0.95, lowest 2% from about 0.22 on). The list shows a part of the results.

test system: PDC-DUC18828; assay: cell viability of compound + 1 nM pemigatinib relative to pemigatinib-only (DMSO) wells (fraction); PDC-DUC18828 is a patient-derived cholangiocarcinoma cell line; higher = less growth inhibition; conditions: first compound 1 µM; pemigatinib concentration 1 nM; 72 h
Method: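 Selleck Bioactive library screen in the patient-derived FGFR2 fusion-positive ICC cell line PDC-DUC18828 (500 cells/well). Each compound was tested at 1 uM with 1 nM pemigatinib, in triplicate, for 72 h. Viability was read by CellTiter-Glo and normalised to plate DMSO controls. Value is the paper's averaged normalised viability.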

Row | SMILES | cell viability
1 | O=C(O)c1cc(I)ccc1NC(=O)[C@H](Cc1ccccc1)NCc1ccccc1 + CCN1C(=O)N(c2c(F)c(OC)cc(OC)c2F)Cc2cnc3[nH]c(CN4CCOCC4)cc3c21 [pemigatinib] | 1.06
2 | COc1ccc(C2=N[C@H](c3ccc(Cl)cc3)[C@H](c3ccc(Cl)cc3)N2C(=O)N2CCNC(=O)C2)c(OC(C)C)c1 [Nutlin-3b] + CCN1C(=O)N(c2c(F)c(OC)cc(OC)c2F)Cc2cnc3[nH]c(CN4CCOCC4)cc3c21 [pemigatinib] | 1
3 | Cc1cnc(C(=O)O)c[n+]1[O-] [Acipimox] + CCN1C(=O)N(c2c(F)c(OC)cc(OC)c2F)Cc2cnc3[nH]c(CN4CCOCC4)cc3c21 [pemigatinib] | 0.956
4 | O=C(c1cncc(Br)c1)N1CCC(N2CCCC2)CC1 + CCN1C(=O)N(c2c(F)c(OC)cc(OC)c2F)Cc2cnc3[nH]c(CN4CCOCC4)cc3c21 [pemigatinib] | 0.942
5 | O=C(Nc1ccc([N+](=O)[O-])cc1O)Nc1ccccc1Br + CCN1C(=O)N(c2c(F)c(OC)cc(OC)c2F)Cc2cnc3[nH]c(CN4CCOCC4)cc3c21 [pemigatinib] | 0.591
6 | O=c1c(O)c(-c2ccc(O)c(O)c2)oc2cc(O)cc(O)c12 [Quercetin] + CCN1C(=O)N(c2c(F)c(OC)cc(OC)c2F)Cc2cnc3[nH]c(CN4CCOCC4)cc3c21 [pemigatinib] | 0.944
7 | O=c1c(O)c(-c2ccc(O)c(O)c2)oc2cc(O)cc(O)c12 [Quercetin Dihydrate] + CCN1C(=O)N(c2c(F)c(OC)cc(OC)c2F)Cc2cnc3[nH]c(CN4CCOCC4)cc3c21 [pemigatinib] | 0.896
8 | COc1ccc(CN2CCN(C(c3ccc(F)cc3)c3ccc(F)cc3)CC2)c(OC)c1OC [Lomerizine HCl] + CCN1C(=O)N(c2c(F)c(OC)cc(OC)c2F)Cc2cnc3[nH]c(CN4CCOCC4)cc3c21 [pemigatinib] | 0.932
9 | CC(C)Cc1ccc(C(C)C(=O)O)cc1 (stereo not drawn) [Ibuprofen] + CCN1C(=O)N(c2c(F)c(OC)cc(OC)c2F)Cc2cnc3[nH]c(CN4CCOCC4)cc3c21 [pemigatinib] | 1.06
10 | CCN1CCN(Cc2ccc(Nc3ncc(F)c(-c4cc(F)c5nc(C)n(C(C)C)c5c4)n3)nc2)CC1 + CCN1C(=O)N(c2c(F)c(OC)cc(OC)c2F)Cc2cnc3[nH]c(CN4CCOCC4)cc3c21 [pemigatinib] | 0.633
11 | COCCc1ccc(OCC(O)CNC(C)C)cc1 (stereo not drawn) [Metoprolol Tartrate] + CCN1C(=O)N(c2c(F)c(OC)cc(OC)c2F)Cc2cnc3[nH]c(CN4CCOCC4)cc3c21 [pemigatinib] | 0.877
12 | COc1cc2ncnc(Nc3ccc(F)c(Cl)c3)c2cc1OCCCN1CCOCC1 [Gefitinib (ZD1839)] + CCN1C(=O)N(c2c(F)c(OC)cc(OC)c2F)Cc2cnc3[nH]c(CN4CCOCC4)cc3c21 [pemigatinib] | 0.847
13 | CN1CCN(c2nc(C3=C(c4c[nH]c5ccccc45)C(=O)NC3=O)c3ccccc3n2)CC1 [Sotrastaurin] + CCN1C(=O)N(c2c(F)c(OC)cc(OC)c2F)Cc2cnc3[nH]c(CN4CCOCC4)cc3c21 [pemigatinib] | 0.958
14 | CC(C(=O)O)c1ccc(C(=O)c2cccs2)cc1 (stereo not drawn) [Suprofen] + CCN1C(=O)N(c2c(F)c(OC)cc(OC)c2F)Cc2cnc3[nH]c(CN4CCOCC4)cc3c21 [pemigatinib] | 0.976
15 | CC(C)[C@H](N)C(=O)OCC(CO)OCn1cnc2c(=O)[nH]c(N)nc21 (stereo partly drawn) [Valganciclovir HCl] + CCN1C(=O)N(c2c(F)c(OC)cc(OC)c2F)Cc2cnc3[nH]c(CN4CCOCC4)cc3c21 [pemigatinib] | 0.924
16 | O=C(c1ccc(OCCCc2c[nH]cn2)cc1)C1CC1 [Ciproxifan] + CCN1C(=O)N(c2c(F)c(OC)cc(OC)c2F)Cc2cnc3[nH]c(CN4CCOCC4)cc3c21 [pemigatinib] | 0.88
17 | CCOc1ccc(NC(C)=O)cc1 [Phenacetin] + CCN1C(=O)N(c2c(F)c(OC)cc(OC)c2F)Cc2cnc3[nH]c(CN4CCOCC4)cc3c21 [pemigatinib] | 1.06
18 | CN1CCC[C@@H]1CCO[C@](C)(c1ccccc1)c1ccc(Cl)cc1 [Clemastine Fumarate] + CCN1C(=O)N(c2c(F)c(OC)cc(OC)c2F)Cc2cnc3[nH]c(CN4CCOCC4)cc3c21 [pemigatinib] | 1.01
19 | CC[C@@H]([C@H](C)O)n1ncn(-c2ccc(N3CCN(c4ccc(OC[C@@H]5CO[C@@](Cn6cncn6)(c6ccc(F)cc6F)C5)cc4)CC3)cc2)c1=O [Posaconazole] + CCN1C(=O)N(c2c(F)c(OC)cc(OC)c2F)Cc2cnc3[nH]c(CN4CCOCC4)cc3c21 [pemigatinib] | 0.861

Row | SMILES | cell viability
20 | O=C(O)c1ccccc1 [Benzoic Acid] + CCN1C(=O)N(c2c(F)c(OC)cc(OC)c2F)Cc2cnc3[nH]c(CN4CCOCC4)cc3c21 [pemigatinib] | 0.991
21 | CCCCC[C@H](O)/C=C/[C@H]1[C@H](O)CC(=O)[C@@H]1CCCCCCC(=O)O [Alprostadil] + CCN1C(=O)N(c2c(F)c(OC)cc(OC)c2F)Cc2cnc3[nH]c(CN4CCOCC4)cc3c21 [pemigatinib] | 1
22 | NC1=N[C@@](c2cccc(-c3cncnc3)c2)(c2ccnc(C(F)F)c2)c2cccc(F)c21 + CCN1C(=O)N(c2c(F)c(OC)cc(OC)c2F)Cc2cnc3[nH]c(CN4CCOCC4)cc3c21 [pemigatinib] | 0.893
23 | CCc1oc2ccccc2c1C(=O)c1cc(Br)c(O)c(Br)c1 [Benzbromarone] + CCN1C(=O)N(c2c(F)c(OC)cc(OC)c2F)Cc2cnc3[nH]c(CN4CCOCC4)cc3c21 [pemigatinib] | 1
24 | CC/C(=C(\c1ccccc1)c1ccc(OCCN(C)C)cc1)c1ccccc1 [Tamoxifen Citrate] + CCN1C(=O)N(c2c(F)c(OC)cc(OC)c2F)Cc2cnc3[nH]c(CN4CCOCC4)cc3c21 [pemigatinib] | 0.892
25 | Cn1cc(-c2ccc(S(=O)(=O)n3ccc(/C=C/C(=O)Nc4ccccc4N)c3)cc2)cn1 + CCN1C(=O)N(c2c(F)c(OC)cc(OC)c2F)Cc2cnc3[nH]c(CN4CCOCC4)cc3c21 [pemigatinib] | 0.568
26 | Cc1ccccc1N=Nc1ccc(NC(=O)c2ccnn2C)c(C)c1 + CCN1C(=O)N(c2c(F)c(OC)cc(OC)c2F)Cc2cnc3[nH]c(CN4CCOCC4)cc3c21 [pemigatinib] | 0.947
27 | CCN(CCCOc1ccc2c(Nc3cc(CC(=O)Nc4cccc(F)c4)[nH]n3)ncnc2c1)CCOP(=O)(O)O [Barasertib (AZD1152-HQPA)] + CCN1C(=O)N(c2c(F)c(OC)cc(OC)c2F)Cc2cnc3[nH]c(CN4CCOCC4)cc3c21 [pemigatinib] | 0.745
28 | Cc1c[nH]c(/C=C2\C(=O)Nc3ccccc32)c1CCC(=O)O + CCN1C(=O)N(c2c(F)c(OC)cc(OC)c2F)Cc2cnc3[nH]c(CN4CCOCC4)cc3c21 [pemigatinib] | 0.946
29 | CC[N+](CC)(CC)CCOc1cccc(OCC[N+](CC)(CC)CC)c1OCC[N+](CC)(CC)CC [Gallamine Triethiodide] + CCN1C(=O)N(c2c(F)c(OC)cc(OC)c2F)Cc2cnc3[nH]c(CN4CCOCC4)cc3c21 [pemigatinib] | 0.975
30 | CN(C)CCCCC(=O)Nc1ccc(NC(=S)NC(=O)c2ccc(C(C)(C)C)cc2)cc1 [Tenovin-6] + CCN1C(=O)N(c2c(F)c(OC)cc(OC)c2F)Cc2cnc3[nH]c(CN4CCOCC4)cc3c21 [pemigatinib] | 0.977
31 | C=C(c1ccc(C(=O)O)cc1)c1cc2c(cc1C)C(C)(C)CCC2(C)C [Bexarotene] + CCN1C(=O)N(c2c(F)c(OC)cc(OC)c2F)Cc2cnc3[nH]c(CN4CCOCC4)cc3c21 [pemigatinib] | 1.07
32 | COc1cc(/C=C/C(=O)CC(=O)/C=C/c2ccc(O)c(OC)c2)ccc1O [Curcumin] + CCN1C(=O)N(c2c(F)c(OC)cc(OC)c2F)Cc2cnc3[nH]c(CN4CCOCC4)cc3c21 [pemigatinib] | 0.952
33 | Cc1cc2c(F)c(Oc3ncnn4cc(OC[C@@H](C)O)c(C)c34)ccc2[nH]1 + CCN1C(=O)N(c2c(F)c(OC)cc(OC)c2F)Cc2cnc3[nH]c(CN4CCOCC4)cc3c21 [pemigatinib] | 1.05
34 | O=C(O)CSCC(=O)NC1CCSC1=O (stereo not drawn) [Erdosteine] + CCN1C(=O)N(c2c(F)c(OC)cc(OC)c2F)Cc2cnc3[nH]c(CN4CCOCC4)cc3c21 [pemigatinib] | 0.954
35 | CC(C)CN(C[C@@H](O)[C@H](Cc1ccccc1)NC(=O)O[C@H]1CO[C@H]2OCC[C@H]21)S(=O)(=O)c1ccc(N)cc1 [Darunavir Ethanolate] + CCN1C(=O)N(c2c(F)c(OC)cc(OC)c2F)Cc2cnc3[nH]c(CN4CCOCC4)cc3c21 [pemigatinib] | 1.01
36 | Nc1nc(Nc2ccc3c(c2)CCC(N2CCCC2)CC3)nn1-c1cc2c(nn1)-c1ccccc1CCC2 (stereo not drawn) + CCN1C(=O)N(c2c(F)c(OC)cc(OC)c2F)Cc2cnc3[nH]c(CN4CCOCC4)cc3c21 [pemigatinib] | 0.77
37 | CCCC(=O)OCOC(=O)C1=C(C)NC(C)=C(C(=O)OC)C1c1cccc(Cl)c1Cl (stereo not drawn) [Clevidipine Butyrate] + CCN1C(=O)N(c2c(F)c(OC)cc(OC)c2F)Cc2cnc3[nH]c(CN4CCOCC4)cc3c21 [pemigatinib] | 1.02
38 | NC(CO)C(=O)NNCc1ccc(O)c(O)c1O (stereo not drawn) [Benserazide HCl] + CCN1C(=O)N(c2c(F)c(OC)cc(OC)c2F)Cc2cnc3[nH]c(CN4CCOCC4)cc3c21 [pemigatinib] | 1.03
